# Data: the supplement of paper PMC4604168 (melanoma cell lines)
# The list shows a part of the results. Repeats are few or missing, and single values can be far off.
# Legend:
# Test in all cases: cell count relative to DMSO control; melanoma cells; higher = more viable cells
# Conditions in all cases: library dose: standard library concentration; 72 h
# G361 = tested on: G361
# IPC-298 = tested on: IPC-298
# IST-MEL1 = tested on: IST-MEL1
# LB2518-MEL = tested on: LB2518-MEL
# LOXIMVI = tested on: LOXIMVI
# MEL-HO = tested on: MEL-HO
# MZ2-MEL = tested on: MZ2-MEL
# MeWo = tested on: MeWo
# RPMI7951 = tested on: RPMI7951
# RVH-421 = tested on: RVH-421
# SkMel28 = tested on: SkMel28
# SkMel2 = tested on: SkMel2
# SkMel30 = tested on: SkMel30
# SkMel5 = tested on: SkMel5
# UACC257 = tested on: UACC257
# UACC62 = tested on: UACC62
# WM115 = tested on: WM115
# WM1716 = tested on: WM1716
# WM1745 = tested on: WM1745
# WM3526 = tested on: WM3526
# 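Note: cells treated in 1,536-well plates, then fixed and DAPI-stained, with nuclei counted from automated high-throughput microscope images.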
Compound,cell count (G361),cell count (IPC-298),cell count (IST-MEL1),cell count (LB2518-MEL),cell count (LOXIMVI),cell count (MEL-HO),cell count (MZ2-MEL),cell count (MeWo),cell count (RPMI7951),cell count (RVH-421),cell count (SkMel28),cell count (SkMel2),cell count (SkMel30),cell count (SkMel5),cell count (UACC257),cell count (UACC62),cell count (WM115),cell count (WM1716),cell count (WM1745),cell count (WM3526)
"Cc1cc(N2CCOCC2)cc2[nH]c(-c3c(NC[C@@H](O)c4cccc(Cl)c4)cc[nH]c3=O)nc12 + C/C(O)=C(\C#N)C(=O)Nc1cc(Br)ccc1Br [LFM-A13] (first compound 1 µM, partner dose 10 µM)",79.1%,102%,104%,99.2%,76.8%,83.9%,90.3%,81%,70.3%,116%,103%,96.9%,75.1%,75.6%,95.9%,79.1%,86.3%,97%,59.1%,85.2%
"CS(=O)(=O)c1ccc(C(=O)Nc2ccc(Cl)c(-c3ccccn3)c2)c(Cl)c1 [vismodegib] + N.N.[Cl][Pt][Cl] [cisplatin] (first compound 5 µM, partner dose 8 µM)",95.1%,95.5%,93.3%,109%,76%,83.4%,107%,106%,120%,84%,87.2%,140%,94%,96.8%,96.3%,81.7%,110%,94.2%,103%,87.8%
"N#CC[C@H](C1CCCC1)n1cc(-c2ncnc3[nH]ccc23)cn1 [ruxolitinib] + N.N.[Cl][Pt][Cl] [cisplatin] (first compound 5 µM, partner dose 8 µM)",15.5%,44.7%,53.7%,39.9%,23.3%,69.4%,27.9%,69.4%,12.8%,28.9%,7.82%,5.22%,94.5%,66.4%,72.6%,61.2%,66.8%,67.1%,47%,91.9%
"COc1ccc(C2=N[C@@H](c3ccc(Cl)cc3)[C@@H](c3ccc(Cl)cc3)N2C(=O)N2CCNC(=O)C2)c(OC(C)C)c1 [Nutlin-3] + C[As](C)SC[C@H](NC(=O)CC[C@H](N)C(=O)O)C(=O)NCC(=O)O [Darinaparsin] (first compound 0.5 µM, partner dose 2 µM)",60.9%,102%,100%,60.3%,59.8%,102%,123%,80.6%,84%,66.5%,58.4%,126%,71.1%,37.2%,75.7%,62.3%,57.8%,60.4%,100%,82.1%
"O=C(Nc1cccc(Cl)c1)Nc1ncc(CCNc2ncnc3ccsc23)s1 + Cc1cc(SCc2sc(-c3ccc(C(F)(F)F)c(F)c3)nc2C)ccc1OCC(=O)O [GW0742] (first compound 0.004 µM, partner dose 10 µM)",70.1%,61.7%,62.3%,70.7%,84.1%,65.6%,44.9%,69.8%,47%,76.9%,32.3%,80.1%,98.6%,94.9%,73.4%,87%,53.1%,41.7%,66%,72.8%
"O=C(O)c1ccc(-c2c[nH]c3ncc(-c4ccccc4)cc23)cc1C1CCCC1 + O=C(Oc1ccc([N+](=O)[O-])cc1)N1CCC(C(O)(c2ccc3c(c2)OCO3)c2ccc3c(c2)OCO3)CC1 [JZL184] (first compound 0.8 µM, partner dose 5 µM)",66.9%,79.5%,86.9%,130%,93.9%,84.1%,73%,75.6%,110%,92.6%,70.7%,78.8%,97.7%,85.1%,79.6%,94.3%,82.3%,89.9%,87%,75.3%
"CC[C@]1(O)C[C@H]2CN(CCc3c([nH]c4ccccc34)[C@@](C(=O)OC)(c3cc4c(cc3OC)N(C=O)[C@H]3[C@@](O)(C(=O)OC)[C@H](OC(C)=O)[C@]5(CC)C=CCN6CC[C@]43[C@@H]65)C2)C1 [vincristine] + C[As](C)SC[C@H](NC(=O)CC[C@H](N)C(=O)O)C(=O)NCC(=O)O [Darinaparsin] (first compound 0.0005 µM, partner dose 2 µM)",19.6%,50.4%,34.3%,51.8%,60.9%,40.3%,32.2%,21.7%,13.4%,10.3%,24.7%,12.4%,33.5%,19.3%,49.4%,38.5%,23.3%,14.5%,43.2%,28.1%
"CCCCCCCCc1ccc(CCC(N)(CO)CO)cc1 [fingolimod] + C[As](C)SC[C@H](NC(=O)CC[C@H](N)C(=O)O)C(=O)NCC(=O)O [Darinaparsin] (first compound 10 µM, partner dose 2 µM)",0.447%,21.5%,3.94%,0.21%,11%,1.01%,0.661%,8.12%,0.53%,1.05%,0.214%,0.35%,9.41%,28.6%,46.4%,19.5%,10.2%,36.4%,9.77%,47.9%
"CN(C)S(=O)(=O)c1ccc2c(c1)/C(=C/c1cc3c([nH]1)CCCC3)C(=O)N2 + C/C(O)=C(\C#N)C(=O)Nc1cc(Br)ccc1Br [LFM-A13] (first compound 2 µM, partner dose 10 µM)",71.6%,71.1%,89.9%,65%,120%,82.7%,96.7%,80.9%,64.4%,108%,69.8%,71%,85.2%,58.1%,86.8%,84.3%,62.5%,104%,50.9%,68.9%
"Nc1ncn([C@H]2C[C@H](O)[C@@H](CO)O2)c(=O)n1 [decitabine] + C[As](C)SC[C@H](NC(=O)CC[C@H](N)C(=O)O)C(=O)NCC(=O)O [Darinaparsin] (first compound 0.5 µM, partner dose 2 µM)",67.6%,65.5%,68.2%,107%,70%,86.3%,85.2%,77%,104%,93.7%,104%,107%,110%,69.1%,102%,85.9%,77.9%,72.2%,106%,89.2%
"C[C@]1(O)C[C@@H](c2nc(-c3ccc4ccc(-c5ccccc5)nc4c3)c3c(N)nccn32)C1 + C[As](C)SC[C@H](NC(=O)CC[C@H](N)C(=O)O)C(=O)NCC(=O)O [Darinaparsin] (first compound 2 µM, partner dose 2 µM)",78.5%,89.5%,88.6%,97.9%,58.7%,105%,94.7%,77.7%,94.1%,89.5%,125%,78.7%,106%,59%,84.4%,61.7%,75%,57.5%,56.5%,61.2%
"O=S(=O)(c1ccccc1)N(CC(F)(F)F)c1ccc(C(O)(C(F)(F)F)C(F)(F)F)cc1 + Cc1cc(SCc2sc(-c3ccc(C(F)(F)F)c(F)c3)nc2C)ccc1OCC(=O)O [GW0742] (first compound 7 µM, partner dose 10 µM)",66.8%,86.2%,107%,109%,93.2%,96.1%,100%,91.8%,35.6%,94%,80.1%,92.1%,112%,76.3%,84.1%,83.4%,105%,122%,83.1%,82.6%
"C/C(O)=C(\C#N)C(=O)Nc1cc(Br)ccc1Br + CC(C)CCN1c2nc(Nc3cc(F)c(O)c(F)c3)ncc2N(C)C(=O)C1C [BID1870] (first compound 10 µM, partner dose 1 µM)",60.7%,80.7%,96.3%,143%,118%,70.2%,97.3%,82%,116%,99.8%,50.5%,77.2%,83.9%,61.8%,85.2%,65%,85.2%,6.73%,79.7%,65.2%
"O=C(/C=C/c1cccnc1)NCCCCC1CCN(C(=O)c2ccccc2)CC1 + Cn1cc(C2=C(c3cn(C4CCN(Cc5ccccn5)CC4)c4ccccc34)C(=O)NC2=O)c2ccccc21 [Enzastaurin] (first compound 0.05 µM, partner dose 4 µM)",2.24%,28.9%,61.5%,60.9%,80.7%,41.4%,33.2%,86.7%,82.3%,33.2%,75.4%,8.84%,91.7%,86.1%,107%,89.5%,101%,80%,65.7%,77.9%
"OCc1c[nH]c2ccccc12 [Indole-3-carbinol] + C[As](C)SC[C@H](NC(=O)CC[C@H](N)C(=O)O)C(=O)NCC(=O)O [Darinaparsin] (first compound 4 µM, partner dose 2 µM)",100%,98.7%,101%,95.8%,84.9%,79.5%,104%,74.2%,84.7%,78.3%,130%,90.1%,68.3%,52.7%,75.8%,77.2%,81%,71.4%,73.8%,72.6%
"O=C(Nc1cc(C(F)(F)F)cc(C(F)(F)F)c1)c1cc(Cl)ccc1O + N.N.[Cl][Pt][Cl] [cisplatin] (first compound 0.08 µM, partner dose 8 µM)",85%,88.7%,90.8%,109%,49.3%,82.2%,76.8%,92%,113%,81.5%,111%,109%,94.1%,97.8%,75.5%,97.7%,98.6%,101%,83.6%,106%
